Assay results taken from paper PMC9911399, “Two distinct binding modes provide the RNA-binding protein RbFox with extraordinary sequence specificity”.
Changes are numbered by the printed parent chain; changes in the protein carry UniProt numbers. Some of the results follow.

T1: RBFOX1 RRM RbFoxmut (Fox-RRM*) (Homo sapiens, UniProt Q9NWB1 109-208, R118D;E147R;N151S;E152T)
T1 sequence: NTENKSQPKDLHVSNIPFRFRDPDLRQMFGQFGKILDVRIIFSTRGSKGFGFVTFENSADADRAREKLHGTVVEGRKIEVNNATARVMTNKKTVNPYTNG

B1: AAUUCCG (DNA:RNA)
RNA: GGGAGACCGGAAUUCAGAUUGUCCAAUUCCGUUAAAUCCCGUCGUAGCCACCA
DNA 1: CAATCTGAATTCCGGTCTCCC
DNA 2: TGGTGGCTACGACGGGATT
B2: UCGCCUU (DNA:RNA)
RNA: B1 RNA with A25U, A26C, U27G, U28C, C30U, G31U
DNA 1: CAATCTGAATTCCGGTCTCCC
DNA 2: TGGTGGCTACGACGGGATT
B3: CGCCGUG (DNA:RNA)
RNA: B1 RNA with A25C, A26G, U27C, U28C, C29G, C30U
DNA 1: CAATCTGAATTCCGGTCTCCC
DNA 2: TGGTGGCTACGACGGGATT
B4: UCAGUAA (DNA:RNA)
RNA: GGGAGACCGGAAUUCAGAUUGUCCUCAGUAAUUAAAUCCCGUCGUAGCCACCA
DNA 1: CAATCTGAATTCCGGTCTCCC
DNA 2: TGGTGGCTACGACGGGATT
B5: UGCGAGG (DNA:RNA)
RNA: B4 RNA with C26G, A27C, U29A, A30G, A31G
DNA 1: CAATCTGAATTCCGGTCTCCC
DNA 2: TGGTGGCTACGACGGGATT
B6: UCCAGUU (DNA:RNA)
RNA: B4 RNA with A27C, G28A, U29G, A30U, A31U
DNA 1: CAATCTGAATTCCGGTCTCCC
DNA 2: TGGTGGCTACGACGGGATT
B7: CGGGUAC (DNA:RNA)
RNA: B4 RNA with U25C, C26G, A27G, A31C
DNA 1: CAATCTGAATTCCGGTCTCCC
DNA 2: TGGTGGCTACGACGGGATT
B8: GGGGGGU (DNA:RNA)
RNA: B4 RNA with U25G, C26G, A27G, U29G, A30G, A31U
DNA 1: CAATCTGAATTCCGGTCTCCC
DNA 2: TGGTGGCTACGACGGGATT
B9: GGAUUAA (DNA:RNA)
RNA: B4 RNA with U25G, C26G, G28U
DNA 1: CAATCTGAATTCCGGTCTCCC
DNA 2: TGGTGGCTACGACGGGATT
B10: GGGCCAC (DNA:RNA)
RNA: B1 RNA with A25G, A26G, U27G, U28C, C30A, G31C
DNA 1: CAATCTGAATTCCGGTCTCCC
DNA 2: TGGTGGCTACGACGGGATT
B11: UAGAGAU (DNA:RNA)
RNA: B4 RNA with C26A, A27G, G28A, U29G, A31U
DNA 1: CAATCTGAATTCCGGTCTCCC
DNA 2: TGGTGGCTACGACGGGATT
B12: UGGGUUG (DNA:RNA)
RNA: B4 RNA with C26G, A27G, A30U, A31G
DNA 1: CAATCTGAATTCCGGTCTCCC
DNA 2: TGGTGGCTACGACGGGATT
B13: UCAGUUA (DNA:RNA)
RNA: B4 RNA with A30U
DNA 1: CAATCTGAATTCCGGTCTCCC
DNA 2: TGGTGGCTACGACGGGATT
B14: CUCAUUC (DNA:RNA)
RNA: B4 RNA with U25C, C26U, A27C, G28A, A30U, A31C
DNA 1: CAATCTGAATTCCGGTCTCCC
DNA 2: TGGTGGCTACGACGGGATT
B15: UUGUAAA (DNA:RNA)
RNA: B4 RNA with C26U, A27G, G28U, U29A
DNA 1: CAATCTGAATTCCGGTCTCCC
DNA 2: TGGTGGCTACGACGGGATT
B16: GCGAACA (DNA:RNA)
RNA: B4 RNA with U25G, A27G, G28A, U29A, A30C
DNA 1: CAATCTGAATTCCGGTCTCCC
DNA 2: TGGTGGCTACGACGGGATT
B17: CAGCGCU (DNA:RNA)
RNA: B1 RNA with A25C, U27G, U28C, C29G, G31U
DNA 1: CAATCTGAATTCCGGTCTCCC
DNA 2: TGGTGGCTACGACGGGATT
B18: GGAGAAG (DNA:RNA)
RNA: B4 RNA with U25G, C26G, U29A, A31G
DNA 1: CAATCTGAATTCCGGTCTCCC
DNA 2: TGGTGGCTACGACGGGATT
B19: CUGGUCC (DNA:RNA)
RNA: B4 RNA with U25C, C26U, A27G, A30C, A31C
DNA 1: CAATCTGAATTCCGGTCTCCC
DNA 2: TGGTGGCTACGACGGGATT
B20: CUGCUAC (DNA:RNA)
RNA: B4 RNA with U25C, C26U, A27G, G28C, A31C
DNA 1: CAATCTGAATTCCGGTCTCCC
DNA 2: TGGTGGCTACGACGGGATT
B21: CGCUCAA (DNA:RNA)
RNA: B1 RNA with A25C, A26G, U27C, C30A, G31A
DNA 1: CAATCTGAATTCCGGTCTCCC
DNA 2: TGGTGGCTACGACGGGATT
B22: GAACGAG (DNA:RNA)
RNA: B1 RNA with A25G, U27A, U28C, C29G, C30A
DNA 1: CAATCTGAATTCCGGTCTCCC
DNA 2: TGGTGGCTACGACGGGATT
B23: CGGAGGC (DNA:RNA)
RNA: GGGAGACCGGAAUUCAGAUUGUCCCGGAGGCUUAAAUCCCGUCGUAGCCACCA
DNA 1: CAATCTGAATTCCGGTCTCCC
DNA 2: TGGTGGCTACGACGGGATT
B24: UGGCGGU (DNA:RNA)
RNA: B23 RNA with C25U, A28C, C31U
DNA 1: CAATCTGAATTCCGGTCTCCC
DNA 2: TGGTGGCTACGACGGGATT
B25: ACUAAUG (DNA:RNA)
RNA: B1 RNA with A26C, U28A, C29A, C30U
DNA 1: CAATCTGAATTCCGGTCTCCC
DNA 2: TGGTGGCTACGACGGGATT
B26: GCGAAGA (DNA:RNA)
RNA: B23 RNA with C25G, G26C, G29A, C31A
DNA 1: CAATCTGAATTCCGGTCTCCC
DNA 2: TGGTGGCTACGACGGGATT
B27: UGGGGCG (DNA:RNA)
RNA: B23 RNA with C25U, A28G, G30C, C31G
DNA 1: CAATCTGAATTCCGGTCTCCC
DNA 2: TGGTGGCTACGACGGGATT
B28: UGCCCCG (DNA:RNA)
RNA: B1 RNA with A25U, A26G, U27C, U28C
DNA 1: CAATCTGAATTCCGGTCTCCC
DNA 2: TGGTGGCTACGACGGGATT
B29: GGAACGC (DNA:RNA)
RNA: B23 RNA with C25G, G27A, G29C
DNA 1: CAATCTGAATTCCGGTCTCCC
DNA 2: TGGTGGCTACGACGGGATT
B30: AACGUUG (DNA:RNA)
RNA: B1 RNA with U27C, U28G, C29U, C30U
DNA 1: CAATCTGAATTCCGGTCTCCC
DNA 2: TGGTGGCTACGACGGGATT
B31: UACAGCA (DNA:RNA)
RNA: B1 RNA with A25U, U27C, U28A, C29G, G31A
DNA 1: CAATCTGAATTCCGGTCTCCC
DNA 2: TGGTGGCTACGACGGGATT

The binders below were run against T1, RBFOX1 RRM RbFoxmut (Fox-RRM*) (assay: EMSA; HiTS-Eq, 1 nM pool, 10 min; buffer printed only for the single-RNA assays: 10 mM Tris pH 7.5, 150 mM NaCl, 3.4 mM EDTA, 0.001% NP-40, 30 C). Details: tags: His6 N-terminal (pET28a); label: 5' 32P.
Method in brief: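 A pool of RNA with 7 randomized nucleotides, 5′-radiolabelled and with DNA-annealed flanks, was equilibrated at 1 nM for 10 min in 50 µL with purified RbFox RRM, wild type or mutant, across increasing protein concentrations. Free RNA was separated by 8% native PAGE, excised, reverse-transcribed, barcoded by PCR and sequenced. Relative association constants were obtained from read-count changes of each RNA species versus the control reaction and normalised to the cognate motif.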

Row | Binder | binding signal
1 | B1 | 0.0878 KA relative to UGCAUGU
2 | B2 | 0.0678 KA relative to UGCAUGU
3 | B3 | 0.141 KA relative to UGCAUGU
4 | B4 | 0.126 KA relative to UGCAUGU
5 | B5 | 0.098 KA relative to UGCAUGU
6 | B6 | 0.0717 KA relative to UGCAUGU
7 | B7 | 0.094 KA relative to UGCAUGU
8 | B8 | 0.0952 KA relative to UGCAUGU
9 | B9 | 0.0905 KA relative to UGCAUGU
10 | B10 | 0.0781 KA relative to UGCAUGU
11 | B11 | 0.0788 KA relative to UGCAUGU
12 | B12 | 0.947 KA relative to UGCAUGU
13 | B13 | 0.107 KA relative to UGCAUGU
14 | B14 | 0.0585 KA relative to UGCAUGU
15 | B15 | 0.112 KA relative to UGCAUGU
16 | B16 | 0.0715 KA relative to UGCAUGU

Row | Binder | binding signal
17 | B17 | 0.104 KA relative to UGCAUGU
18 | B18 | 0.0762 KA relative to UGCAUGU
19 | B19 | 0.107 KA relative to UGCAUGU
20 | B20 | 0.0793 KA relative to UGCAUGU
21 | B21 | 0.0905 KA relative to UGCAUGU
22 | B22 | 0.257 KA relative to UGCAUGU
23 | B23 | 0.093 KA relative to UGCAUGU
24 | B24 | 0.109 KA relative to UGCAUGU
25 | B25 | 0.123 KA relative to UGCAUGU
26 | B26 | 0.0742 KA relative to UGCAUGU
27 | B27 | 0.161 KA relative to UGCAUGU
28 | B28 | 0.0794 KA relative to UGCAUGU
29 | B29 | 0.182 KA relative to UGCAUGU
30 | B30 | 0.129 KA relative to UGCAUGU
31 | B31 | 0.0901 KA relative to UGCAUGU
